Reference: the RNAGym collection of RNA variant scans (doi:10.7554/elife.90254)
The source gives no read counts; variants with many changes may rest on few reads.

B1: LINE1-mini (parent)
chain: GGCAGAGCUCAACACAGCGUGGCAAAGUGGCUGUGGCUAGACUGCC

Variants of: B1
Test: self-cleavage, relative activity (ratio to wild type); higher = more cleavage; in vitro, sequencing; the parent is a self-cleaving ribozyme

Variant	self-cleavage
GGCGGAACUCAACACAGCGUGGCAAACUGGCUGUGGCUAGACUGCC	0.05
GACAGAGGUCAACACAGCGUGGCAAAGUGGCUGCGGCUAGACUGCC	0.06
AGUAGAGCUCAACACCGCGUGGCAUAGUGGCUGUGGCUAGACUGCC	0.55
GGCAGACCUCAACAUAGCGUGGCAAAGUGGCUGUGGUUAAACUGCU	0.06
GGCAGAGCCCAACACACCGUGGCAAAGUGGCUGUGGCUGGACUGCG	0.01
GGCACAGCUCAACACAGCGUGGCAAAGUGGCUGUGGCUAAACUUCC	0.01
GGAAGAGCUCAACACAGCGUGGCAAAGUGGCUGUGUCAAGACUGCC	0.05
GGCAGAGCUCUACACAGCGUAGCACAGAGACUGUGGCUAGACUGCC	0.27
GGCAGAGCUACGCUCAGCGUGGUAAAGUGGCUGUGGCUAGACUGCC	0.01
GGAAGAGCUCAACACAGAGUGGCAAUCUGGAUGUGGCUAGACUGCC	0.08
GGCAGAGCUGAACACAGAGUGGCAAAGUGGCUGAGGCUAGACUGCC	0.01
GGCCGAGCUCAAGACAGCGUGGCAAAGUGGCUGUGGCUAGACUGAC	0.11
GGCAGAGGUCAACAUUGCGUUGCAAAGUGGCUGUGGCUAGACUGCC	0
GGCAGAGCUUAGUACAGCAUGGCAAAGUGGCUGUGGCUAGACUGCC	0.05
GGCAGCGCUCAAUACAGUGUGGGAAAGUGGCUGUGGCUAGACUGCC	0.09
GGCAGAGCUCAACACAACGUGGCAAAAUGGCUGUGGGUAGACUGCC	0.04
GGCAGAGCUCAACACAGCGUGGCCAAGUGGCUUUGGCUAGACUGCU	0.07
GGCCGAGCUCAACACAGCGUGGCAUAGUGGCUGUGGCUAGAUAGCC	0.04
GGCAGAGCUCAACACAGCGUGAAAAAGAGGCUGUCGCUAGACUGCC	0.18
GGCAGAGCUCAACACAGCGUGUCAAAGUGGCUGCGGCUAGACUGCA	0.23
GGCAGAGCUCAACACAGCGUGGCAAAGAUGCUGUGGCUAUACUGCC	0.09
GGCUGAGCUGAACACAGCGUGGCAAAGUGGCUGUGACUAGGCUGCC	0.03
GGCCGAGCCCAACACAGCGUGGCAAAUUGGCUGUGGCGAGACUGUC	0.01

Variant	self-cleavage
GGCAGAGCUCAACACAGCGUGGCAAAAUGGCUGUGUCUGGUCUGCC	0.01
GGCAGAGCUCAACCGAGCGUGGCAAAGUGGCUGUGGCGAGACUGCC	0
GGCAGACCUCAACACAGCGUCGCAAAGUGGUUGUGGCUAGACUGCC	0.03
GGCAGGGCUCAACGCGGCUAGGCAAAGUGGCUGUGGCUAGACCGCC	0.02
GGCAGAGCUCAAAACAGCGUGGCAAAGUGGAUGUGGCUAGACUUCC	0.03
GGCAGAGCUCAACACCGCGUGGCAACGUGGCUGUGGCGAGACUUCC	0.03
GGCAGAGCUCAACACAGCGUGGCAAAGGUGCUGUGGGUAGACUGCC	0.04
GGCCGCGCUCAAUAAAGCGUGGCAAAGUGACUGUGGCUAGACUGCC	0.06
GGCAGAGCUCAACACAGCGAGGCAAAGCAGCUGUGCCUAGACUGCC	0.07
GGCGGAGCAAAACACAGCGUUGCAAAGUGGCUGUGGCUAGACUGCC	0.02
GGCAGAGCACAACACAGCGUGGCAAAGUGGCUGUGUUUAGACUGCC	0.01
GGCAGAGCUCAACACAGCGUGGCAAAGUGGCGUUGUCUAGACUGAC	0.09
GGCAGAGCUAAACACAGCGUGGCAAAGUGGGUUUGGCUAGACUGCC	0.01
UGCAGAGCUCAACACAGCGUGGCAAAGUUGCUGUGGCUAUACUGCC	0.44
GCCAGAGCACAACACAGCGUGGCAAAGAGGCUGUGGCUAGACUGCC	0.16
CGCAGAGCUCAACACAGCGUGGCAAAGUGUCUGUGGCUAUACUGCC	0
GGCAGAACUCGACACAGCCUGGCAAAGUGGCUGUGGCUAGACUGCC	0
GGCAGAGGUCAAGACAACGUGGCAAAGCGGCUGUGUCUAGACUGCC	0.05
GGCACAGCUCAACACAGCGUGGCAAAGUGGCUGUGGCCGGACUGCC	0.02
GGCAGCGCUCAACACGUAGUGGCAAGGUGGCUGUGGCGAGACUGCC	0.02
GGCAGCGCUCAACACAGCGUGGCAAAGUGGUUGUGGCCAGACUGCC	0.02
GGGAGAGCUCAACAGAGCGUGGCAAAGUGGCUUUGGCUUGACUGCC	0.03
GGCACAACUCAACCCAGCGUGGCAAAGUGGCUGAGGCUAGACUGCC	0.1

Variant	self-cleavage
GUCAGAGCUCAACACAGCUUGUCAAAGUGUCUGUGGCUAGACUGCA	0.19
GUUAGAGCUCUACACAGCGUGGCAAAGUGGCGGUGGCUAGACUGCC	0.04
GGCAGAGAUCAACACAACGUGGCAAAGUGGCUAUGGUUAGACUGCC	0.1
CGCAGAGCUCAACACAGCGUAGCAAAGUGGCAGUGGCUAGACUGCC	0.02
GGCAGCGCUCAACACAGCGUGGGAAAGUGGAUGUGGCUAGUCUGCC	0.04
GACAGACCCCAUUACAGCGUGGCCAAGUGGCUGUGGCUAGAAUGCC	0.06
GGCAGACCUCAACACAGCGUGGCAAAGUGGUUGUGGCUAGACUCCC	0.3
GGCAGAGCUCAACAAAGCGGGGAAAAGUAGCUGUGGCUAGACUGCC	0.09
GACAGAGCUCAACACAGCAUGGCAAAGUGGCUGUGGCUAGACCGCC	0.65
GGCAGAGCUAAACACAGCGUGGCAAAAAGGUUGUGGCUAGACUGCC	0
GGCACAAGUCAACACAGCGUGGCAAAGUGGCUGUGGCUAGACUGCC	0.05
GGCAGAGCUGAACACAGCGUGUCAAAGUGGGUGUGGCUAGACUGCC	0.01
GGCAGCGCUCUACACAGCGUGGAAAAGUGGCUGUGGCUACACUGGC	0.01
GGCAGAGCUCUACAGAGCGUAGCAAAGUGGCUGUGGCUAGACUGCC	0.03
GGCUGAGCACACCUCAGCGUGGCAAAGUGGCUGUGGAUAGACUGCC	0.02
GACAGAGCUCAAGACAGCGUGGCAAAGUGGCUGUGGCUAGACUGGC	0.06
GGCAGAGCUAACUACAGCGUGGCAAAGUGGCUGUGGCUAUACUGCC	0.01
GGCAGAGCUCAACAGAGCAUGGCAAAGUGGCUGUGGCUGGACUGCC	0.01
GGCACAGCUCAACACAGCGUGGCCAACUGGCUGUGGCUAGACUGCC	0.01
GGCAGAGCUCAACACAGCGUGGCAAGGUUGCGGUGGCUAGACUGCC	0.05
GGCACAGGUCCACACAGCGUGGCAAAAUGGCUGUGGCUAGACUGCC	0.02
GGAAGAGCUCAACACACCGUGGCAAAGUGGCUGUGGCUAGCCUGCC	0.08
GGGAGAGCUCAGCACAGCGUGGCAAAGUGGCCGUGGCUAGACUGCC	0.17

Variant	self-cleavage
GGCACAGCUCAGCACAGCGCGACAAAGUGGCUGUGGCUAGACUGCC	0
GGCCCAGCUCAACACAGCGUGGCAAAGGGGCUGUGGCUAGACUGGC	0
GGCAGAGCUCAACACUGCGUGGCAAAGUGGCUGUGGCUAAAUUCCC	0.02
GCCAGAGCUAAACACAGCGUGGCAAAGUGGGUGUGUCUAGACUGCC	0.1
AGCAGAGCUCAACACAGCGUGUCAAAGCCGCUGUGCCUAGACUGCC	0.04
GGCAGAGCACAACACAGCGUGGCACAGCGGCUGUGACUAGACUGCC	0.23
GGCAGAGCUCAACACCGCGUGACAAAGUGGAUGUGGCUAGACUGCC	0.01
GGCAGAGCUCAACACAGCGUGGCAAAGUGUCUGUGGCUAUACUAGC	0.05
CGCAGAGCUCAACACAGCGCCGCAAAGAGGCUGUGGCUAGACUGAC	0.08
GGCAGAGCUCAACAUAGCUUGGCAAAGUGGCUGUGGCGAGACUGCC	0.1
AGUAGAGCUCAACACAGCGUGGCAAAGUGGCAGUGGCUAGACUGCC	0.34
GGCGUACAUCAACACAGCGUGUCAAAGUGGCAGUGGCUAGACUGCC	0.13
GGCAGAGCUCAACACAGUGUGGCAAAGUGGCUGUGGGUCGACCGCC	0.01
GGCAGAGUACAACACAGCGUGGCACAGUGGCUGUGGCUAGACUGCC	0.19
GGCAGAGCUCAACACAGCGUGUCAAAGUGGCUGGGCCUAGACUGCC	0.04
GGCAGAACUCAGCACAGCGCGGCAAAGUGGCUGUGGCUAGACUGCC	0.03
GGCAGAGCUCAAUACAGCGUGUCAAAGUGGCUGGGGCUAGACUGCC	0
GGCAGAGCUUAACCCAGCGUGUCAAAGUGGCUUUGGCUAGAAUGCC	0.01
GGCGGAGCUCUGCGCAGCGUGGCAAAGUGGCUGUGACUAGACUGCC	0.01
GGCAGACCUCACAACAGCGUGGCAAAGUGGUUGUGGCUAGACUGCC	0.02
GGCAGAGCUCAACACCGCGUGGCAAAGUGGCUGUGGAUUGACUGCU	0.02
GGCAUAGCUUAACACAGCGUGGCAAAGUGGCUGUGGCUAGACCGCC	0.19
GGCAGAGAUCAACACAGCGUGGCAAGGUGGCUGUGGCUAGGCUGCC	0.14

Variant	self-cleavage
GGCAGAGCACAACAGAGCGUUGCAAAGUGGCUGUGGCUAGUCUGCC	0.04
AGCAGCGCUCAACACACCGGGGCAAAGUGGCUGAGGCUAGACUGCC	0.03
GUCAGACCUCAACACACCGUGGCAAAGUGGCUGUGGCUAGACUGCC	0.12
GACAGAGCUCGACACAGCAUGGCAAAGUGGCUGUGGCUAGACUGCC	0.08
GGCAGAGCACAACGCAGCGUGGCAAAGUGGCUGAGGCUAGACUGAC	0.15
GGCAGAGCUUACCACAGCGUGGCAGAGUGACUGUGGCUAGACUGCC	0.01
GGCAGAGCUUAACACUGCGUGGCAAAGUGGCUGUGUUUAGACUGCC	0.02
GGGAGAGCUCACGACAGCGUGGCAAAGUGGCUGGGGCUAGAGUGCC	0.02
GGCAGAGCUCAACACAGCGUCUCACAGUGGCUGUGGCUAGACUGCC	0.6
GACAGGCCUCAACACAGCGUGGCAAAGUGGUUGUGGCUAGACUGCC	0.02
GGCAGAGCUGAACAAAGCGUGGCAACGUGGCUGUGGCUAGACUGCC	0.02
GGCAGAGCGCAACACAGCGUGGCAAAGGGCCUGUGGCUAGACUGCC	0.08
GGCAGCGCUCAACACAACGUGGGAAAGUGGCUGUGGCUAGACUGAC	0.02
GGCAGAGCUCUACACAGCGUGGCAAAGUAGCUGUGGAUAGACUGUC	0
GGCAGAGCUCAACACAGCGUGGCAAAGUGGCUAGGGCUAGACUGGC	0.07
GUCAUAGCUCAGCACAUCGUGGCAAAGAGGUUGUGCCUAGACUGCC	0.01
GGGAGAGCUAAACACAGCGUGGCAUAGUGGCUGUGGCUAGACUGCC	0.02
GGCAGAGGUCGACACAGGGUGGCAAAGUGGCUGUGGCUAGAAUGCC	0.02
GGCAGGGCUCAACACAGCGUGGUAAAGUGGCUGUGGAUAGACUGCC	0.02
GGCAGACCUCAACACAGCGUGGCAAAGUCGCUGUGGAUAGACUGCC	0.05
